# Measurements taken from PubChem BioAssay AID1460 (National Center for Advancing Translational Sciences (NCATS), 2008).
# The campaign covered roughly 270,000 compounds. About 5,800 (2.1%) were called active. This list was built around the results that the source calls inconclusive (neither active nor inactive); the mix of calls is not that of the screen. Calls come from the whole dose curve; as a rule, active = well fitted inhibition curve with a large enough effect; inconclusive = small, poorly fitted or top-dose-only effect; inactive = flat fitted curve, though single readings scatter. Potencies of inconclusive entries are doubtful fits and often do not repeat.
# Target: Microtubule-associated protein tau (Homo sapiens) (UniProt P10636)
# Chain of UniProt P10636 (P10636 whole entry, looked up): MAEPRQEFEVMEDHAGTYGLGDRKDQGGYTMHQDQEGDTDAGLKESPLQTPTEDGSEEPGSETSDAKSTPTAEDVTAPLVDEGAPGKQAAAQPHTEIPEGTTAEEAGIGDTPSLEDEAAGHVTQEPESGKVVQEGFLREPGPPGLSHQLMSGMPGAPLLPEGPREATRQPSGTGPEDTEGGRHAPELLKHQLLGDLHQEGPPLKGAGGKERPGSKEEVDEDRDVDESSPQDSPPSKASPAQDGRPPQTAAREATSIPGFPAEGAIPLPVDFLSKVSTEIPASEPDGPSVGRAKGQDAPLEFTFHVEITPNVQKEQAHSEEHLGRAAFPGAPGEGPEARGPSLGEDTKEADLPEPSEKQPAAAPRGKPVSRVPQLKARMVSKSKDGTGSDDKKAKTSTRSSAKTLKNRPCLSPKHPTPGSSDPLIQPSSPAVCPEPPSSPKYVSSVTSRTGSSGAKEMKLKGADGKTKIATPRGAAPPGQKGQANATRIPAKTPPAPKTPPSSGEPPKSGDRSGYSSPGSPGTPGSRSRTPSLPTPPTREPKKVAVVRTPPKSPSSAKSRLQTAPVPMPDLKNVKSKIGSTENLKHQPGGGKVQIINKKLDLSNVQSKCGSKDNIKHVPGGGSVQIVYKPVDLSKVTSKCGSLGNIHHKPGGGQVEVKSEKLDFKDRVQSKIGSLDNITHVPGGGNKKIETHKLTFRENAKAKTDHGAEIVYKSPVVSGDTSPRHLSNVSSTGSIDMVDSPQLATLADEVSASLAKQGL
# Assay: qHTS for Inhibitors of Tau Fibril Formation, Thioflavin T Binding; note: nearly all actives have a fitted effect of over 55% in size
# Settings: recombinant tau K18 P301L (four-repeat tau fragment), heparin-induced fibrillization, ThT fluorescence; series mostly up to 57.4 µM; activity, negative = inhibition: at the top concentration
# Method in brief: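 Heparin-induced (20 uM) aggregation of recombinant human K18 P301L tau, 15 uM unlabeled with 0.24 uM labeled, pH 7 acetate buffer, 6 hr at 37 C with compound. Fibrils quantified by 30 uM ThT fluorescence after 1 hr ambient incubation.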
# % is set by controls: 0 for no effect and ±100 for the full control effect; potency is the fitted concentration of half-maximal effect; tags give direction and shape of the fitted curve.
SMILES,"activity, negative = inhibition",Potency
COc1cccc(Oc2c(C)oc3cc(OC(=O)N(C)C)ccc3c2=O)c1,inactive: -6.77%,–
COC(=O)C1=CO[C@@H](C)[C@@H]2CN3CC[C@]4(C(=O)Nc5c4ccc(OC)c5OC)[C@H]3C[C@H]12,inactive: -5.29%,–
CCN(CC)CCOC(=O)c1cc2cc(COC)ccc2o1,inactive: -8.09%,–
COc1cc2c(cc1OC)-c1c(OC)c(OC)cc3c1C(C2)N(C)CC3 (stereo not given),–,"inconclusive: 14.1 µM [inhibitor, partial curve]"
COc1ccc(CCn2c(O)c(C=NCCN3CCCCC3)c(=O)[nH]c2=O)cc1OC,inactive: -4.13%,–
O=c1cc(-c2ccc(O)c(O)c2)oc2cc(O)cc(O)c12,–,active: 12.6 µM
C=C1C([C@@H](O)C[C@H](C)C2O[C@@]3(CCCCO3)CC[C@H]2C)OC2CC[C@@]3(CC[C@@H](/C=C/[C@@H](C)C4CC(C)=C[C@]5(O4)O[C@H](C[C@@](C)(O)C(=O)O)CCC5O)O3)OC2[C@@H]1O (stereo not given in full),inactive: -0.0194%,–
COc1ccc(C(=O)N2CCOCC2)cc1S(=O)(=O)N1CCC(C)CC1,inactive: 0.461%,–
COc1c(C)cc(C(=O)C2CCCN(Cc3cnc(C)s3)C2)cc1C (stereo not given),inactive: 2.11%,–
CC1(C)CC(=O)C(C2(O)C(=O)NC(=O)NC2=O)=C(O)C1,–,active: 6.31 µM
Clc1ccc2c(c1)C(c1ccccc1Cl)=NCc1nnc(N3CCN(CCOc4ccccc4)CC3)n1-2,–,"inconclusive: 14.1 µM [inhibitor, partial curve, poor fit]"
O=C(CCC1N=C2c3ccccc3N=C(SCc3cccc(Cl)c3)N2C1=O)N1CCN(c2ccccc2)CC1 (stereo not given),–,"inconclusive: 11.2 µM [inhibitor, partial curve]"
Cn1cc(NC(=O)CCl)cn1,inactive: 8.99%,–
Cc1ccc(Cl)cc1N1CCN(c2ncnc3c2nc2n3CCCC2)CC1,–,"inconclusive: 39.8 µM [inhibitor, single point]"
CCOC(=O)c1cnc2c(ccc3ccccc32)c1Nc1ccc(N(C)C)cc1,–,"inconclusive: 15.8 µM [inhibitor, partial curve]"
COc1cc(OC)c(OC)cc1/C=C1/C(=O)NC(=O)N(Cc2ccccc2)C1=O,–,"inconclusive: 1.58 µM [inhibitor, partial curve]"
CCCCCCn1c(O)c(/C=N/N2CCCCCC2)c(=O)[nH]c1=O,–,"inconclusive: 25.1 µM [inhibitor, partial curve, poor fit]"
CN1CCC(O)(c2ccc(Cl)cc2)C(C(=O)c2ccc(Cl)cc2)C1 (stereo not given),–,"inconclusive: 31.6 µM [inhibitor, single point]"
CC(=NCCO)c1c(O)n(C2CCCCC2)c(=O)[nH]c1=O,inactive: -9.9%,–
C=CCc1c(C)[nH]c(=S)c(C#N)c1C,–,"inconclusive: 7.94 µM [inhibitor, partial curve, poor fit]"
